{
  "source": "PubChem BioAssay AID686978",
  "about": "(National Center for Advancing Translational Sciences (NCATS), 2013)",
  "note": "Where “and” joins values, the source holds several entries; their conditions need not be identical. Equal values may be shown once. Hit rate of the full screen: of about 420,000 compounds, about 64,000 (15%) were called active. This list was built around the results that the source calls inconclusive (neither active nor inactive); the mix of calls is not that of the screen. Calls follow the shape of the dose curve; as a rule, active = well fitted inhibition curve with a large enough effect; inconclusive = small, poorly fitted or top-dose-only effect; inactive = flat fitted curve, though single readings scatter. A potency beside an inconclusive call is a rough fit, not a confirmed value. % is scaled to controls: 0 for no effect and ±100 for the full control effect; potency is read from the fitted curve at half-maximal effect; tags tell the direction and shape of the fitted curve.",
  "data": [
    {"assay": "qHTS for Inhibitors of human tyrosyl-DNA phosphodiesterase 1 (TDP1): qHTS in cells in absence of CPT; also: nearly all actives have a fitted effect of over 55% in size", "details": "DT40 Tdp1-/- hTDP1 cells, no CPT, ATP luminescence, 48 h; activity change, negative = growth inhibition: at 46.2 µM (top of the series) unless noted", "summary_of_the_method": "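Cells were dispensed at 400 per well, compounds added by pin tool, plates incubated ≥48 hr at 37 °C, then CellTiter-Glo added for 30 min at room temperature before luminescence reading. Line: DT40 Tdp1-/- complemented with hTDP1; camptothecin omitted.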", "values": [
      {"smiles": "CC(=O)Nc1ccc(NC(=O)C(C)OC(=O)C23CC4CC(CC(Cl)(C4)C2)C3)cc1", "note": "(stereo not given)", "Potency": "inconclusive: 32.6 µM [inhibitor, single point]"},
      {"smiles": "CCC(=O)NC(=S)Nc1ccc(NC(=O)c2ccc([N+](=O)[O-])cc2)cc1", "Potency": "inconclusive: 9.2 µM [inhibitor, full curve, poor fit]"},
      {"smiles": "CCc1nn2c(=O)c(S(=O)(=O)Nc3ccc(Br)cc3F)c(C)nc2s1", "activity change, negative = growth inhibition": "inactive: -25.2%"},
      {"smiles": "O=C(Nc1cccc2ccccc12)c1ccc2sc([C@@H]3O[C@H](CO)[C@H](O)[C@H](O)[C@H]3O)nc2c1", "activity change, negative = growth inhibition": "inactive: -2.48%"},
      {"smiles": "Cc1nc(N=C(N)N)nc2c(C)cccc12", "Potency": "active: 20.6 µM"},
      {"smiles": "CCOC(=O)Cc1c(C)c2c(C)nn(-c3ccccc3)c2oc1=O", "Potency": "inconclusive: 18.4 µM [inhibitor, single point]"},
      {"smiles": "O=C(c1cc2n(n1)C(C(F)(F)F)CC(c1ccco1)N2)N1CCc2ccccc2C1", "note": "(stereo not given)", "Potency": "active: 18.4 µM"},
      {"smiles": "C[C@@H]1CN([C@H](C)CO)S(=O)(=O)c2ccc(Br)cc2O[C@H]1CN(C)C(=O)Nc1ccc(F)cc1", "Potency": "inconclusive: 23.1 µM [inhibitor, single point]"},
      {"smiles": "CCOC(CCn1c(SCc2cccc([N+](=O)[O-])c2)nc2ccccc2c1=O)OCC", "Potency": "inconclusive: 29.1 µM [inhibitor, single point]"},
      {"smiles": "CCN(CC)S(=O)(=O)c1cc(C(=O)Nc2ccncc2)ccc1Cl", "Potency": "active: 15.8 µM"},
      {"smiles": "Cc1ccc(F)cc1C(=O)N1CCCCC1c1cc(C(=O)Nc2ccccc2)no1", "note": "(stereo not given)", "Potency": "inconclusive: 23.1 µM [inhibitor, single point]"},
      {"smiles": "COc1ccc(C)cc1S(=O)(=O)Nc1cccc(SC)c1", "Potency": "inconclusive: 23.1 µM [inhibitor, partial curve]"},
      {"smiles": "Cc1nc2c(OCc3ccc(C(F)(F)F)cc3)cccn2c1N(C)CC1CC1", "Potency": "active: 23.1 µM"},
      {"smiles": "CCCCNC(=O)C(NC(=O)Cc1cc(OC)cc(OC)c1)C(=O)c1ccccc1", "note": "(stereo not given)", "Potency": "inconclusive: 25.9 µM [inhibitor, single point]"},
      {"smiles": "N#CC(C#N)=C1C=C2C=C(N3CCOCC3)CCC2CC1", "note": "(stereo not given)", "Potency": "inconclusive: 29.1 µM [inhibitor, single point]"},
      {"smiles": "Cc1cc2oc(=O)cc(CN3CCN(S(=O)(=O)c4ccc5c(c4)OCCO5)CC3)c2cc1C", "Potency": "inconclusive: 23.1 µM [inhibitor, partial curve]"},
      {"smiles": "NC(=O)c1nn2c(C(F)(F)F)cc(-c3ccc(Br)cc3)nc2c1Cl", "Potency": "inconclusive: 23.1 µM [inhibitor, single point]"},
      {"smiles": "COc1ccccc1CCC(=O)Nc1ccc2c(c1)CN(Cc1ccc(CO)o1)CC2", "Potency": "inconclusive: 29.1 µM [inhibitor, single point]"},
      {"smiles": "CSc1nc2sc(-c3ccccc3)cc2c(=O)n1N", "activity change, negative = growth inhibition": "inconclusive: -34.5% [inhibitor]"},
      {"smiles": "Cc1cc2nc(-c3cccc(Br)c3)c(Cc3ccccc3)n2c(C)c1Br", "Potency": "inconclusive: 23.1 µM [inhibitor, single point]"},
      {"smiles": "CN(C)c1ncnc2c1ncn2[C@H]1CN(Cc2ccncc2)C[C@@H](CO)O1", "activity change, negative = growth inhibition": "inconclusive: -30.9% [inhibitor]"},
      {"smiles": "Cc1ccc2nc(Cl)c3cc(C(=O)NCCCN(C)Cc4ccccc4)sc3c2c1", "Potency": "active: 10.3 µM"},
      {"smiles": "CCCOc1ccc2c(c1)C(=NN=C(N)N)c1cc(OCCC)ccc1-2", "Potency": "active: 23.1 µM"},
      {"smiles": "Cc1nc2cc(NCc3ccccc3O)ccc2n1Cc1ccccc1", "Potency": "inconclusive: 29.1 µM [inhibitor, single point]"},
      {"smiles": "Cc1nc(N2CCNCC2)c2c3c(sc2n1)CCCC3", "Potency": "inconclusive: 29.1 µM [inhibitor, single point]"},
      {"smiles": "O=[N+]([O-])c1ccc(N2CCN(S(=O)(=O)c3ccc(Cl)c(Cl)c3)CC2)cc1NCCN1CCOCC1", "Potency": "active: 8.2 µM"},
      {"smiles": "C=C1c2cccc(OC)c2O[C@H](C(=O)OCC)[C@@H]1CCCCCC", "Potency": "inactive and inconclusive: 25.9 µM [inhibitor, single point]"},
      {"smiles": "COc1cc(C(=O)N2CCN(C/C=C/c3ccccc3)CC2)cc(OC)c1C", "Potency": "active: 29.1 µM"},
      {"smiles": "COc1cccc2cc(C(=O)Nc3ccccc3C(=O)N3CCOCC3)oc12", "Potency": "inconclusive: 29.1 µM [inhibitor, single point]"},
      {"smiles": "O=C(CCN1C(=O)/C(=C/c2cccs2)SC1=S)Nc1ccccn1", "Potency": "inconclusive: 14.6 µM [inhibitor, partial curve, poor fit]"},
      {"smiles": "O=C1c2ccccc2C(Nc2ccc(S(=O)(=O)N3CCOCC3)cc2)N1c1ccccn1", "note": "(stereo not given)", "Potency": "inconclusive: 20.6 µM [inhibitor, partial curve]"},
      {"smiles": "COc1ccc(C(=O)NCC(=O)OCc2csc(-c3ccccc3)n2)cc1", "Potency": "inconclusive: 18.4 µM [inhibitor, single point]"},
      {"smiles": "CC(C)(C)CC(C)(C)c1ccc(OCC(=O)Nc2ccc(S(=O)(=O)Nc3ncccn3)cc2)cc1", "activity change, negative = growth inhibition": "inactive: -12.3%"},
      {"smiles": "CCOc1ccc2nc(SCC(=O)NCc3ccco3)sc2c1", "Potency": "active: 23.1 µM"},
      {"smiles": "CCOC(=O)CC1COCCN1C(=O)c1cc(COc2ccc(F)c(F)c2)on1", "note": "(stereo not given)", "Potency": "inconclusive: 23.1 µM [inhibitor, single point]"},
      {"smiles": "Cc1ccc(C)c(N(C)C(=O)Cc2c(C(=O)O)[nH]c3ccc(Cl)cc23)c1", "Potency": "inconclusive: 4.11 µM [inhibitor, full curve]"},
      {"smiles": "CCN1C(=O)/C(=C/C2=Cc3ccccc3OC2C)SC1=S", "note": "(stereo not given)", "Potency": "inconclusive: 29.1 µM [inhibitor, single point]"},
      {"smiles": "O=C(O)c1ccc2c(=O)n3c(nc2c1)/C(=C/c1ccc(C(F)(F)F)cc1)CC3", "activity change, negative = growth inhibition": "inactive: 1.98%"},
      {"smiles": "OC(CN1CCNCC1)Cn1c2ccccc2c2ccccc21", "note": "(stereo not given)", "activity change, negative = growth inhibition": "inactive: -14.9%"},
      {"smiles": "COc1ccc(-c2cc(C(=O)Nc3cc(OC)c(OC)c(OC)c3)no2)cc1OC", "Potency": "inconclusive: 4.61 µM [inhibitor, single point]"},
      {"smiles": "CO/N=C(/CS(=O)(=O)c1ccc(C)cc1)c1ccc(OC)cc1", "Potency": "inconclusive: 18.4 µM [inhibitor, partial curve]"},
      {"smiles": "Cc1ccc(S(=O)(=O)N2CCCC2C(=O)N(C)Cc2cccs2)cc1", "note": "(stereo not given)", "Potency": "inconclusive: 7.31 µM [inhibitor, partial curve]"},
      {"smiles": "CC(C)N(C)CCOC(=O)C1COc2ccccc2O1", "note": "(stereo not given)", "activity change, negative = growth inhibition": "inactive: -9.26%"},
      {"smiles": "COc1ccc(NC(=O)CN(C)CC(=O)NCC2CCCCC2)cc1", "Potency": "inconclusive: 10.3 µM [inhibitor, partial curve]"},
      {"smiles": "Cc1cc([N+](=O)[O-])c(C)cc1-c1ccc(/C=N/NC(=O)c2cccnc2)o1", "Potency": "active: 16.4 µM"},
      {"smiles": "COc1ccc2c(c1)C(C)=CC(C)(C)N2C(=O)Nc1ccccc1", "Potency": "inconclusive: 23.1 µM [inhibitor, single point]"},
      {"smiles": "CCN1CCN(c2cc(C)c3cc(NC(=S)NCCCN4CCc5ccccc5C4)ccc3n2)CC1", "Potency": "active: 14.6 µM"},
      {"smiles": "COc1ccc(-c2cccc(NS(=O)(=O)c3cc([N+](=O)[O-])ccc3Cl)c2)nn1", "Potency": "inconclusive: 23.1 µM [inhibitor, single point]"},
      {"smiles": "Cc1[nH]n(-c2ncc(-c3ccccc3)s2)c(=O)c1C(c1ccc(Br)cc1)C(C#N)C#N", "note": "(stereo not given)", "Potency": "inconclusive: 23.1 µM [inhibitor, single point]"},
      {"smiles": "OC(CSc1ccccc1)CN1CCN(c2ccccc2)CC1", "note": "(stereo not given)", "Potency": "inconclusive: 29.1 µM [inhibitor, single point]"},
      {"smiles": "COc1ccc(-c2c(-c3ccccc3)c(C(=O)C(=O)NCCCN(C)C)n3ccc4cc(OC)c(OC)cc4c23)cc1OC", "Potency": "active: 18.4 µM"},
      {"smiles": "CCC1(C)Nc2ccccc2C(=O)N1O", "note": "(stereo not given)", "activity change, negative = growth inhibition": "inactive: -12.5%"},
      {"smiles": "CC(C)CCNC(=O)C1CCC(=O)N1CCc1ccccc1", "note": "(stereo not given)", "activity change, negative = growth inhibition": "inactive: -24.8%"},
      {"smiles": "Cc1c(CN2CCC(CO)(CCOc3ccccc3)CC2)[nH]c2ccc(Cl)cc12", "Potency": "inconclusive: 18.4 µM [inhibitor, single point]"},
      {"smiles": "CCc1ccc(C(O)(CC(C)C)C(CN2CCOCC2)c2ccccc2)cc1", "note": "(stereo not given)", "Potency": "inconclusive: 29.1 µM [inhibitor, single point]"},
      {"smiles": "COc1ccccc1CNC(=O)CSc1ccccc1", "activity change, negative = growth inhibition": "inactive: -8.19%"},
      {"smiles": "CCC1=NN2C(=N)/C(=C/c3c(C)nn(-c4ccccc4)c3Cl)C(=O)N=C2S1", "Potency": "inconclusive: 29.1 µM [inhibitor, single point]"},
      {"smiles": "COC(=O)CCC(=O)Nc1cc(S(=O)(=O)Nc2ccc(Cl)cc2)ccc1N1CCOCC1", "Potency": "inconclusive: 20.6 µM [inhibitor, single point]"},
      {"smiles": "COc1ccc(Cl)cc1NC(=O)c1noc(C)c1[N+](=O)[O-]", "Potency": "active: 2.31 µM"},
      {"smiles": "CN(C)c1ccc(Nc2nc3ccccc3n3nnnc23)cc1", "Potency": "active: 23.1 µM"},
      {"smiles": "COc1ccc(NC(=O)c2cc([N+](=O)[O-])ccc2N2CCCCC2)cc1", "Potency": "active: 20.6 µM"},
      {"smiles": "O=C(c1ccc(Cl)c(Cl)c1)N1CCC(=O)N([C@H](COCc2ccccc2)Cc2ccccc2)CC1", "Potency": "active: 18.4 µM"},
      {"smiles": "CC(CCc1ccccc1)NC(=O)c1cccc(F)c1", "note": "(stereo not given)", "activity change, negative = growth inhibition": "inconclusive: -32.3% [inhibitor]"},
      {"smiles": "COc1ccc(/C=N/OCC(=O)N(Cc2ccc(OC)cc2)c2ccccc2C(=O)O)cc1", "activity change, negative = growth inhibition": "inactive: -9.19%"},
      {"smiles": "COc1ccccc1CNC(=O)CSc1nc(=O)[nH]c2c1CCC2", "activity change, negative = growth inhibition": "inactive: 5.2%"},
      {"smiles": "N#C/C(=C\\c1ccc(O)c([N+](=O)[O-])c1)c1nc2ccccc2s1", "Potency": "active: 16.4 µM"},
      {"smiles": "CC(C)=CCN1CCN(Cc2cc(C(C)C)n[nH]2)CC1CCO", "note": "(stereo not given)", "activity change, negative = growth inhibition": "inactive: -23.6%"},
      {"smiles": "O=C(NC1CC1)c1ccc(-c2cnc3cccnn23)cc1", "Potency": "inconclusive: 25.9 µM [inhibitor, single point]"},
      {"smiles": "Fc1ccc(-n2c(=S)[nH]c3cccnc32)cc1", "Potency": "inconclusive: 32.6 µM [inhibitor, single point]"},
      {"smiles": "COc1cccc(-c2nc(CS(=O)CC(=O)NCCc3ccc(C)cc3)c(C)o2)c1", "note": "(stereo not given)", "activity change, negative = growth inhibition": "inactive: 1.51%"}
    ]}
  ]
}
